Experimental data published in patent US8652533B2 (priority 2004, dated 2014).

Columns and labels:
[1] = tested on: SARS (Toronto-2 Strain); assay type: cell-based, SARS coronavirus (SARSCoV); conditions: conc. 1 μM; Vero 76 cells, Toronto-2 virus, 72 hours
[2] = tested on: Vero 76 cells; conditions: conc. 1 μM

Oc1cc(O)c2c(c1)O[C@H](c1cc(O)c(O)c(O)c1)[C@@H](O)C2 [(+)-Gallocatechin]
% CPE (INHIBITION) [1]: 6.21% | % CELL VIABILITY [2]: 37.41%

O=C(O[C@@H]1Cc2c(O)cc(O)cc2O[C@H]1c1ccc(O)c(O)c1)c1cc(O)c(O)c(O)c1 [(−)-Catechin Gallate]
% CPE (INHIBITION) [1]: 100% | % CELL VIABILITY [2]: 100%

Theaflavindigallate-A
% CPE (INHIBITION) [1]: 15.03% | % CELL VIABILITY [2]: 100%

(−)-Gallocatechin Gallate
% CPE (INHIBITION) [1]: 100% | % CELL VIABILITY [2]: 100%

O=C(O[C@@H]1Cc2c(O)cc(O)cc2O[C@@H]1c1ccc(O)c(O)c1)c1cc(O)c(O)c(O)c1 [(−)-Epicatechin Gallate]
% CPE (INHIBITION) [1]: 100% | % CELL VIABILITY [2]: 100%

Oc1cc(O)c2c(c1)O[C@@H](c1cc(O)c(O)c(O)c1)[C@H](O)C2 [(−)-Gallocatechin]
% CPE (INHIBITION) [1]: 0% | % CELL VIABILITY [2]: 100%

Oc1cc(O)c2c(c1)O[C@H](c1cc(O)c(O)c(O)c1)[C@H](O)C2 [(−)-Epigallocatechin]
% CPE (INHIBITION) [1]: 25.82% | % CELL VIABILITY [2]: 100%

(−)-Epigallocatechin Gallate
% CPE (INHIBITION) [1]: 100% | % CELL VIABILITY [2]: 100%

Theaflavindigallate-B
% CPE (INHIBITION) [1]: 6.21% | % CELL VIABILITY [2]: 100%

O=c1c(O)cc([C@H]2Oc3cc(O)cc(O)c3C[C@H]2O)cc2c([C@H]3Oc4cc(O)cc(O)c4C[C@H]3O)cc(O)c(O)c12 [free Theaflavin]
% CPE (INHIBITION) [1]: 53.27% | % CELL VIABILITY [2]: 100%

(−)-Catechin
% CPE (INHIBITION) [1]: 0% | % CELL VIABILITY [2]: 100%

O=C(O[C@@H]1Cc2c(O)cc(O)cc2O[C@@H]1c1cc(O)c(=O)c2c(O)c(O)cc([C@H]3Oc4cc(O)cc(O)c4C[C@H]3OC(=O)c3cc(O)c(O)c(O)c3)c2c1)c1cc(O)c(O)c(O)c1 [Theaflavindigallate]
% CELL VIABILITY [2]: 100%
